According to PubChem BioAssay AID463173 (ICCB-Longwood Screening Facility, Harvard Medical School, 2010):
In all, about 52,000 compounds went through this assay and about 4,300 (8.3%) were called active. Rule as the data show it: active = survival mostly below about 52% (no sharp cut-off); inactive = mostly above about 56%. This is one part of the list.

What follows are compounds tested on DeltatarO mutant (assay: S. aureus survival, RN4220 and DeltatarO strains – OD600, teichoic acid synthesis inhibitors, primary screen (AID 463173)). Conditions: S. aureus RN4220 wild type/DeltatarO growth, OD600, 18 h, stronger effect = lower value, screened at 18.75 µg/mL (by protocol).
In the case of `COc1cccc(NC(=O)Cn2c(=O)n(CCCCC(=O)NCc3ccccc3Cl)c(=O)c3ccccc32)c1`, the survival is reported as inactive: 83%.
In the case of `CC1CCN(C(=O)CSc2nc3ccccc3nc2Cc2ccccc2)CC1`, the survival is reported as inactive: 99%.
In the case of `CCOc1ccccc1N1CCN(S(=O)(=O)c2ccc(C3CCCCC3)cc2)CC1`, the survival is reported as inactive: 50%.
In the case of `CCC(=O)N1CCc2cc(S(=O)(=O)Nc3cc(C)ccc3OC)ccc21`, the survival is reported as inactive: 84%.
`COc1ccc(-c2csc3ncnc(Nc4cc(OC)cc(OC)c4)c23)cc1` was tested, and the survival was inactive: 106%.
For `CC(C)C(=O)Nc1ccc2nc(SCC(=O)N3CCc4ccccc43)sc2c1`, the survival was inactive: 97%.
For `Cc1ccc(-n2c(SCC(=O)c3ccccc3)nc3c([nH]c4ccccc43)c2=O)cc1`, the survival was active: -5%.
With `COc1ccccc1CC(=O)Nc1ccc2nc(Nc3cccc(Cl)c3)cc(C)c2c1` the survival was inactive: 144%.
With `CCOc1ccc(NC(=O)CCc2c(C)nc3cc(-c4ccc(Cl)cc4)nn3c2C)cc1` the survival was active: 35%.
`COC(=O)CNC(=O)c1cc2sccc2n1Cc1ccccc1` was tested, and the survival was inactive: 97%.
`CCCOc1ccc(NC(=O)C(=O)NCCCN2CCOCC2)cc1` was tested, and the survival was inactive: 86%.
`Cc1ccc(CNC(=O)CS(=O)(=O)Cc2nc(-c3ccccc3C)oc2C)cc1` was tested, and the survival was inactive: 102%.
For `CCCCCn1c(=O)[nH]c2cc(C(=O)NCc3ccccc3)ccc2c1=O`, the survival was inactive: 80%.
`CCN(CC)S(=O)(=O)c1ccc2c(c1)N(CC(=O)NCCCN1CCN(c3cc(Cl)ccc3C)CC1)C(=O)CO2` was tested, and the survival was inactive: 53%.
In the case of `Cc1cccc(Cn2c(SCc3ccc(C(=O)NC4CCCC4)cc3)nc3ccncc32)c1`, the survival is reported as active: 54%.
`COc1ccc(CNC(=O)Cc2c(C)c3c(cc(C)c4c(C)c(C)oc43)oc2=O)cc1OC` was tested, and the survival was inactive: 84%.
For `Cc1ccc(NC(=O)c2sc(-n3nc(C)c(Cc4ccc5c(c4)OCO5)c3C)nc2C)cc1Cl`, the survival was inactive: 105%.
For `Cc1cccc(-c2noc(CNC(=O)c3ccccc3Br)n2)c1`, the survival was inactive: 72%.
In the case of `CCCn1cnc2cc(NCc3ccc(OC)cc3OC)ccc21`, the survival is reported as inactive: 64%.
With `Cc1cc(=O)oc2cc(OCC(=O)Nc3ccc(O)c(C(=O)O)c3)ccc12` the survival was inactive: 71%.
In the case of `CCOc1ccc(CC(=O)N2CCc3cc(OC)c(OC)cc3C2COc2ccc3c(C)cc(=O)oc3c2)cc1` (centres undefined), the survival is reported as inactive: 55%.
`CC(C)CC(=O)Nc1ccccc1-c1nnn(CC(=O)N2CCc3ccccc3C2)n1` was tested, and the survival was inactive: 92%.
For `COc1ccc2c(c1)c1c(c(=O)n(Cc3ccccc3)c(=O)n1CC(=O)NCc1ccccc1)n2C`, the survival was inactive: 91%.
With `Cc1cc(C)cc(NC(=O)N2CCN(c3cc(-c4noc(C)n4)ccc3C)CC2)c1` the survival was inactive: 87%.
In the case of `CCOCCCNC(=O)c1ccc(-n2c(-c3ccccc3)cc3c2CCCCC3)cc1`, the survival is reported as inactive: 49%.
`CN(C)CCN(Cc1ccco1)C(=O)c1oc2ccccc2c1NC(=O)c1cccc(F)c1` was tested, and the survival was inactive: 117%.
`CCC(=O)N1CCc2cc(Br)cc(S(=O)(=O)CCC(=O)Nc3cccc(C)c3C)c21` was tested, and the survival was inactive: 144%.
In the case of `COc1ccc(CNCc2c(C(=O)O)n(Cc3ccc(F)cc3)c3cc(C)ccc23)cc1OC`, the survival is reported as inactive: 82%.
`Cc1cccc(NC(=O)C2CCN(c3cnccn3)CC2)c1` was tested, and the survival was inactive: 54%.
With `COc1ccc(Cn2c(=O)c3ccccc3n3c(-c4cccc(OC)c4OC)nnc23)cc1` the survival was inactive: 93%.
For `COc1ccc(CC(=O)Nc2ccc3nc(N4CCCCC4)cc(C)c3c2)cc1`, the survival was active: 51%.
In the case of `CC1CCN(S(=O)(=O)c2ccc3c(c2)oc(=O)n3CC(=O)O)CC1`, the survival is reported as active: 0%.
With `CCOC(=O)c1c(NC(C)=O)c2c3c(sc2n1Cc1nc(-c2ccccc2Cl)oc1C)CCCC3` the survival was inactive: 105%.
With `Cc1ccc(CNC(=O)c2cc3c(s2)-c2c(C)cccc2OC3)cc1` the survival was inactive: 68%.
In the case of `CCc1cc(=O)[nH]c(SCc2nc(-c3ccccc3)no2)n1`, the survival is reported as inactive: 95%.
In the case of `Cc1cccc(CC(=O)NCc2nc3cccnc3n2Cc2ccc(F)cc2)c1`, the survival is reported as inactive: 72%.
`CCCOc1ccc(C(=O)Nc2ccc(NC(=O)c3ccccc3)c(C)c2)cc1` was tested, and the survival was inactive: 82%.
In the case of `Cc1cccc(C(=O)NC2=NC(c3ccc(Cl)cc3)CC(=O)N2)c1` (centres undefined), the survival is reported as inactive: 88%.
`CCNC(=O)c1c(NC(=O)c2nc(S(=O)(=O)CC)ncc2Cl)sc2c1CCCC2` was tested, and the survival was active: 34%.
For `O=C(CSc1nc(=O)[nH]c2c1CCCC2)NCc1ccc(F)cc1`, the survival was inactive: 69%.
With `COCCn1c(C)cc(O)c(C(c2ccc(F)cc2)N2CCN(c3ccccc3)CC2)c1=O` (centres undefined) the survival was active: 47%.
In the case of `CCOC(=O)c1c(C)c(-c2ccccc2)n(CC(=O)NCCc2cccc(C)c2)c1C`, the survival is reported as inactive: 100%.
For `COc1ccc(CC(=O)NCCS(=O)(=O)N2CCN(c3ccc(F)cc3)CC2)cc1OC`, the survival was inactive: 70%.
`N#Cc1ccccc1Cn1cnc2nc3c(cc2c1=O)CCCC3` was tested, and the survival was inactive: 101%.
For `CCc1nc(C)cn1S(=O)(=O)c1ccc(Cl)c(Cl)c1OC`, the survival was inactive: 71%.
`COc1ccc(CCNC(=O)c2cn(C)c3ccc(S(=O)(=O)N(C)C)cc3c2=O)cc1OC` was tested, and the survival was inactive: 84%.
With `CC1CCCN(S(=O)(=O)c2cc3c4c(c2)CC(=O)N4CCC3)C1` (centres undefined) the survival was inactive: 91%.
For `CCN(C(=O)c1cn(CC(C)C)c(=O)c2cc(OC)c(OC)cc12)c1cc(OC)ccc1OC`, the survival was inactive: 55%.
In the case of `CC(C)c1ccc(NC(=O)Cn2nnc(C(=O)NCc3ccc(Cl)cc3)c2N)cc1`, the survival is reported as inactive: 102%.
`CCN(CC)S(=O)(=O)c1ccc(-c2nnc(SCC(=O)Nc3nc4ccccc4s3)o2)cc1` was tested, and the survival was inactive: 66%.
`COc1ccc2c(c1)sc1ncc(C(=O)NCc3cccc(C)c3)c(=O)n12` was tested, and the survival was inactive: 59%.
With `CCc1ccc(C(=O)c2cn(CC(=O)Nc3cc(F)ccc3F)c3nc(C)ccc3c2=O)cc1` the survival was inactive: 116%.
In the case of `CCOC(=O)C1CCC(CN(Cc2ccc(OC)cc2)S(=O)(=O)c2ccc(F)c(C(=O)Nc3c(C)cccc3C)c2)CC1` (centres undefined), the survival is reported as inactive: 83%.
For `O=C(Nc1cccc(Cl)c1)C1CCCN(c2ncnc3c2nc2n3CCCCC2)C1` (centres undefined), the survival was active: 17%.
`O=C(Cn1cnc2c(nc3n2CCCCC3)c1=O)Nc1ccc(F)c(Cl)c1` was tested, and the survival was inactive: 102%.
In the case of `CS(=O)(=O)Nc1ccccc1C(=O)OCc1cc(=O)n2nc(C3CCCCC3)sc2n1`, the survival is reported as inactive: 70%.
In the case of `Cc1cc(F)ccc1NC(=O)CS(=O)(=O)c1cccc2nsnc12`, the survival is reported as inactive: 77%.
In the case of `Cc1ccccc1Nc1c(-c2ccccc2)nc2cccc(C)n12`, the survival is reported as inactive: 98%.
In the case of `CSc1ccc(CCNC(=O)c2cc3cc(S(=O)(=O)N4CCCCC4)ccc3n2C)cc1`, the survival is reported as inactive: 66%.
`COc1ccc(CNc2nc(SCc3ccccc3Cl)nc3ccccc23)cc1` was tested, and the survival was inactive: 103%.
With `COc1ccc(N2CC(NC(=O)C3CCCC3)CC2=O)cc1OC` (centres undefined) the survival was inactive: 104%.
With `Nc1nnc(CCC(CCc2nnc(N)s2)(CCc2nnc(N)s2)C(=O)c2ccccc2)s1` the survival was inactive: 92%.
With `CC(C)c1ccc(NC(=O)N2CCC(c3nc4ccccc4o3)CC2)cc1` the survival was inactive: 66%.
`COc1ccc(OC2CCN(S(=O)(=O)c3ccc(OC)cc3)CC2)cc1` was tested, and the survival was inactive: 107%.
With `CC1(c2ccccc2)OC(=O)C(C#N)C12CCCCC2` (centres undefined) the survival was inactive: 103%.
In the case of `COc1cc(NC(=O)CN(C)S(=O)(=O)c2ccc3[nH]c4c(c3c2)CCCC4)cc(OC)c1OC`, the survival is reported as inactive: 84%.
In the case of `c1ccc(OCCSc2nc3ccccc3o2)cc1`, the survival is reported as inactive: 78%.
`O=C(Nc1ccccc1)Oc1ccc2sc(=O)oc2c1` was tested, and the survival was inactive: 100%.
In the case of `CN(C)C(=O)/C=C/c1ccc2c(c1)OCO2`, the survival is reported as inactive: 81%.
For `CCOC(=O)N1CCc2c(sc(NCc3ccc(OCC)cc3)c2C(=O)Nc2ccc(OC)cc2OC)C1`, the survival was inactive: 70%.
`O=C(NC1CCCC1)c1ccc(CSc2nc3ccncc3n2Cc2ccccc2F)cc1` was tested, and the survival was inactive: 67%.
With `O=C1C2=C(Nc3[nH]c(=O)[nH]c(=O)c3C2c2cccs2)c2ccccc21` (centres undefined) the survival was inactive: 88%.
For `CC1=C(C(=O)Nc2cccnc2)C(c2ccc(F)cc2)n2nc(SCc3ccccc3F)nc2N1` (centres undefined), the survival was inactive: 72%.
`C=Cn1cc[n+](CC(=O)c2ccc(Cl)cc2)c1` was tested, and the survival was inactive: 87%.
With `COC(=O)c1ccc(S(=O)(=O)N2CCC(c3nc4ccccc4s3)CC2)cc1` the survival was inactive: 71%.
In the case of `CN1c2cc(Cl)ccc2-c2nc(SCC(=O)Nc3ccc(F)cc3F)ncc2S1(=O)=O`, the survival is reported as inactive: 71%.
For `CCOC(=O)C1C(=O)C(C(=O)OCC)C(c2cccnc2)NC1c1cccnc1` (centres undefined), the survival was inactive: 93%.
In the case of `CCc1ccc(CNC(=O)C(CC)n2ccc3cc(S(=O)(=O)N4CCCCC4)ccc32)cc1` (centres undefined), the survival is reported as inactive: 102%.
With `CC(=O)Nc1ccccc1C(=O)NCc1ccco1` the survival was inactive: 100%.
For `COc1ccc(CNS(=O)(=O)c2cc(C(=O)Nc3cc(Cl)cc(Cl)c3)ccc2F)cc1`, the survival was inactive: 86%.
`COc1ccccc1C(=O)NCc1ccc2c(c1)CCN2C(=O)c1ccncc1` was tested, and the survival was inactive: 87%.
For `CCOC(=O)C1CCCN(C(=O)C2CCN(c3nnc(C)c4c(C)n(-c5ccccc5)nc34)CC2)C1` (centres undefined), the survival was inactive: 129%.
For `CC1=NN(c2ccccc2)C(c2ccccc2)C1` (centres undefined), the survival was inactive: 101%.
With `C=C(C)CSc1nc(C)cc(C)c1C#N` the survival was inactive: 61%.
In the case of `Cc1cc(NC(=O)CSc2nc3c([nH]c4ccccc43)c(=O)n2-c2cccc(Cl)c2)no1`, the survival is reported as inactive: 73%.
`Clc1ccc(-c2noc3ncnc(NCCCN4CCN(c5ccccc5)CC4)c23)cc1` was tested, and the survival was inactive: 87%.
For `Cc1ccc(C)c(N(CC(=O)Nc2ccccc2)S(C)(=O)=O)c1`, the survival was inactive: 71%.
In the case of `CCOc1ccccc1NC(=O)C(Cc1ccccc1)NS(=O)(=O)c1ccc(Br)s1` (centres undefined), the survival is reported as inactive: 133%.
In the case of `CCc1ccc(S(=O)(=O)c2nnn3c2nc(NCc2cccs2)c2sccc23)cc1`, the survival is reported as inactive: 56%.
